Measured values from the RNAGym collection of RNA variant scans (doi:10.1073/pnas.2313332121).
This sample is rich in variants without activity.

B1: TPR 5TU (parent)
chain: GGAUCUUCUCGAUCUAACAAAAAAGACAAAUCUGCCACAAAGCUUGAGAGCAUCUUCGGAUGCAGAGGCGGCAGCCUUCGGUGGCGCGAUAGCGCCAACGUUCUCAACUAUGACACGCAAAACGCGUGCUCCGUUGAAUGGAGUUUAUCAUG

Variants of: B1
Assay: polymerase ribozyme fitness, log enrichment relative to wild type (log ratio); higher = more active; in vitro selection for triplet polymerase activity
Outline: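 Frozen incubation at −7 °C formed the core of a single, triplicate in vitro selection round applied to PCR-built, transcribed mutant libraries of each subunit of a heterodimeric triplet polymerase ribozyme. Extended constructs were gel-excised, captured with streptavidin beads and amplified by RT-PCR, and input and output libraries were Illumina-sequenced with a filter of ≥10 input reads and ≥1 read per output. Fitness is the logarithm of genotype enrichment relative to wild-type enrichment, with inverse-variance-weighted replicate averaging, and the logarithm is base 2.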

Q: For G83C U90C C95G, which “polymerase ribozyme fitness (log ratio)” value is on record?
A: ≤ -4.2

Q: For G83U C87U A150C, which “polymerase ribozyme fitness (log ratio)” value is on record?
A: ≤ -4.2

Q: With G81A G83C G88A A115U as the variant, how does the “polymerase ribozyme fitness (log ratio)” value read?
A: ≤ -4.2

Q: With C79U C85G U148A as the variant, how does the “polymerase ribozyme fitness (log ratio)” value read?
A: ≤ -4.2

Q: With G80C A91U A137G as the variant, how does the “polymerase ribozyme fitness (log ratio)” value read?
A: ≤ -4.2

Q: Which “polymerase ribozyme fitness (log ratio)” value does the source give for G83U U151A here?
A: ≤ -4.2

Q: Which “polymerase ribozyme fitness (log ratio)” value does the source give for C79A C116A here?
A: -3.87

Q: Which “polymerase ribozyme fitness (log ratio)” value does the source give for G83A C87U C123G A142G here?
A: -2.09

Q: For G84A A120C C125U G136A, which “polymerase ribozyme fitness (log ratio)” value is on record?
A: 0.204

Q: For G83A G94A G117U G133A U135C, which “polymerase ribozyme fitness (log ratio)” value is on record?
A: ≤ -4.2

Q: For C79A G83U G94C A120G, which “polymerase ribozyme fitness (log ratio)” value is on record?
A: ≤ -4.2

Q: With G80C C95U C118G as the variant, how does the “polymerase ribozyme fitness (log ratio)” value read?
A: ≤ -4.2

Q: For G84A A147C, which “polymerase ribozyme fitness (log ratio)” value is on record?
A: -0.0528

Q: For U78G C95U U139A, which “polymerase ribozyme fitness (log ratio)” value is on record?
A: ≤ -4.2

Q: Which “polymerase ribozyme fitness (log ratio)” value does the source give for U78G C85A G88U U90G here?
A: ≤ -4.2

Q: For C79U G88C C93A G136U G143C, which “polymerase ribozyme fitness (log ratio)” value is on record?
A: ≤ -4.2

Q: Which “polymerase ribozyme fitness (log ratio)” value does the source give for G80C C96U here?
A: -3.79

Q: With G81A A89U G112A G133U C149U as the variant, how does the “polymerase ribozyme fitness (log ratio)” value read?
A: ≤ -4.2

Q: With G83U U127A as the variant, how does the “polymerase ribozyme fitness (log ratio)” value read?
A: -3.18

Q: For G83C C118G, which “polymerase ribozyme fitness (log ratio)” value is on record?
A: -0.968

Q: Which “polymerase ribozyme fitness (log ratio)” value does the source give for G81A G94C A106C A113U C116A G133A here?
A: ≤ -4.2

Q: Which “polymerase ribozyme fitness (log ratio)” value does the source give for U82C G83A C103U here?
A: -0.585

Q: For C79G A89U G141C, which “polymerase ribozyme fitness (log ratio)” value is on record?
A: ≤ -4.2

Q: For U82G C85U A107U, which “polymerase ribozyme fitness (log ratio)” value is on record?
A: -3.59

Q: For U78C C85U C103A G141U G152U, which “polymerase ribozyme fitness (log ratio)” value is on record?
A: ≤ -4.2

Q: With G84A A107C U134C as the variant, how does the “polymerase ribozyme fitness (log ratio)” value read?
A: ≤ -4.2

Q: Which “polymerase ribozyme fitness (log ratio)” value does the source give for G80A C93U here?
A: -1.6

Q: Which “polymerase ribozyme fitness (log ratio)” value does the source give for G83U A91G A121G G124C here?
A: ≤ -4.2

Q: Which “polymerase ribozyme fitness (log ratio)” value does the source give for G84A A137C U144C here?
A: ≤ -4.2

Q: With G81A C118A as the variant, how does the “polymerase ribozyme fitness (log ratio)” value read?
A: -1.82

Q: With G84A C85G A107G G143A as the variant, how does the “polymerase ribozyme fitness (log ratio)” value read?
A: ≤ -4.2

Q: With U82G A91G A107G U109G as the variant, how does the “polymerase ribozyme fitness (log ratio)” value read?
A: ≤ -4.2

Q: For G83C C99G C105U, which “polymerase ribozyme fitness (log ratio)” value is on record?
A: ≤ -4.2

Q: Which “polymerase ribozyme fitness (log ratio)” value does the source give for G81C C85U A107C G126A here?
A: -4.16

Q: Which “polymerase ribozyme fitness (log ratio)” value does the source give for G80U C105U G136U here?
A: -1.49

Q: Which “polymerase ribozyme fitness (log ratio)” value does the source give for G83C C125A U144A here?
A: -2.36

Q: For C79A U82A C85A G126A, which “polymerase ribozyme fitness (log ratio)” value is on record?
A: ≤ -4.2

Q: With G83U A89C G94C A119U U144G C149U G152A as the variant, how does the “polymerase ribozyme fitness (log ratio)” value read?
A: ≤ -4.2

Q: With G83A C103A C108U as the variant, how does the “polymerase ribozyme fitness (log ratio)” value read?
A: ≤ -4.2

Q: For U82A U90G, which “polymerase ribozyme fitness (log ratio)” value is on record?
A: ≤ -4.2

Q: With G83C U109A A115C G140C as the variant, how does the “polymerase ribozyme fitness (log ratio)” value read?
A: ≤ -4.2

Q: For G81C U139C, which “polymerase ribozyme fitness (log ratio)” value is on record?
A: ≤ -4.2

Q: With C79U A121U as the variant, how does the “polymerase ribozyme fitness (log ratio)” value read?
A: -1.2

Q: With G80C G92U C96U U135G A150G as the variant, how does the “polymerase ribozyme fitness (log ratio)” value read?
A: ≤ -4.2

Q: With G80A G128U as the variant, how does the “polymerase ribozyme fitness (log ratio)” value read?
A: -3.18

Q: With C79U C93U C105G U146C as the variant, how does the “polymerase ribozyme fitness (log ratio)” value read?
A: ≤ -4.2

Q: Which “polymerase ribozyme fitness (log ratio)” value does the source give for G84A A122G G140A G141A here?
A: ≤ -4.2

Q: For G83A C118G U127G, which “polymerase ribozyme fitness (log ratio)” value is on record?
A: ≤ -4.2

Q: For C79G A107C, which “polymerase ribozyme fitness (log ratio)” value is on record?
A: ≤ -4.2

Q: With G84A A115U as the variant, how does the “polymerase ribozyme fitness (log ratio)” value read?
A: -2.62

Q: For C79G C95U, which “polymerase ribozyme fitness (log ratio)” value is on record?
A: -3.03

Q: Which “polymerase ribozyme fitness (log ratio)” value does the source give for C79A G88A here?
A: ≤ -4.2

Q: With G83C U144C as the variant, how does the “polymerase ribozyme fitness (log ratio)” value read?
A: -1.58

Q: Which “polymerase ribozyme fitness (log ratio)” value does the source give for G83C A107C G140U here?
A: ≤ -4.2

Q: Which “polymerase ribozyme fitness (log ratio)” value does the source give for C79U C87G here?
A: -3.61

Q: With C79A G83U as the variant, how does the “polymerase ribozyme fitness (log ratio)” value read?
A: ≤ -4.2

Q: With C79A U90G C95G C116A A119C G141U as the variant, how does the “polymerase ribozyme fitness (log ratio)” value read?
A: ≤ -4.2

Q: Which “polymerase ribozyme fitness (log ratio)” value does the source give for G81A C85A G136A here?
A: 0.0509

Q: With G83C G92A as the variant, how does the “polymerase ribozyme fitness (log ratio)” value read?
A: ≤ -4.2

Q: With C79G G88U U134C A142U as the variant, how does the “polymerase ribozyme fitness (log ratio)” value read?
A: ≤ -4.2

Q: Which “polymerase ribozyme fitness (log ratio)” value does the source give for G83C C105G G126A here?
A: -2.8

Q: For C79G U82G G92U C95G A113C A121U A137C, which “polymerase ribozyme fitness (log ratio)” value is on record?
A: ≤ -4.2

Q: For G81A A97U, which “polymerase ribozyme fitness (log ratio)” value is on record?
A: -0.297

Q: For G83A U101G A106U U145C, which “polymerase ribozyme fitness (log ratio)” value is on record?
A: -2.55

Q: Which “polymerase ribozyme fitness (log ratio)” value does the source give for G84A A98C C105G U148C here?
A: -3.35

Q: Which “polymerase ribozyme fitness (log ratio)” value does the source give for C79A A106G U146G here?
A: ≤ -4.2

Q: Which “polymerase ribozyme fitness (log ratio)” value does the source give for G80A A89C U151C here?
A: ≤ -4.2

Q: For G83A C99U, which “polymerase ribozyme fitness (log ratio)” value is on record?
A: -2.05

Q: With G83U C93U C96G U135A as the variant, how does the “polymerase ribozyme fitness (log ratio)” value read?
A: -2.89

Q: With U82A A91U as the variant, how does the “polymerase ribozyme fitness (log ratio)” value read?
A: ≤ -4.2

Q: Which “polymerase ribozyme fitness (log ratio)” value does the source give for G80C C87A A150C here?
A: ≤ -4.2

Q: Which “polymerase ribozyme fitness (log ratio)” value does the source give for G80A G81C C95G U145G here?
A: -1.72

Q: For U78C C93U C99A A115C, which “polymerase ribozyme fitness (log ratio)” value is on record?
A: -4.13

Q: For U82A C93G U127A, which “polymerase ribozyme fitness (log ratio)” value is on record?
A: ≤ -4.2

Q: For U82G C118G, which “polymerase ribozyme fitness (log ratio)” value is on record?
A: -1.09

Q: For C79A G86C C87U G100U A106C, which “polymerase ribozyme fitness (log ratio)” value is on record?
A: ≤ -4.2

Q: For G80C G83A A110U, which “polymerase ribozyme fitness (log ratio)” value is on record?
A: ≤ -4.2

Q: Which “polymerase ribozyme fitness (log ratio)” value does the source give for G83U A110G G117U G152U here?
A: ≤ -4.2

Q: Which “polymerase ribozyme fitness (log ratio)” value does the source give for G80A C85U G136A G143C here?
A: -1.57

Q: Which “polymerase ribozyme fitness (log ratio)” value does the source give for U82G G92U A106U C108G U127C A138G U146G here?
A: ≤ -4.2

Q: With G81U G141A as the variant, how does the “polymerase ribozyme fitness (log ratio)” value read?
A: 0.321

Q: Which “polymerase ribozyme fitness (log ratio)” value does the source give for G81C G92A U151A here?
A: ≤ -4.2

Q: For G81C C87A A138C, which “polymerase ribozyme fitness (log ratio)” value is on record?
A: ≤ -4.2
